# In all, about 190,000 compounds went through this assay and about 360 (0.19%) were called active. Inconclusive means that the source gave no clear call. Such entries were picked first, then a sample of the others.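 Rule for the calls: active = GTP binding activity at least 20 points away from 100%, either lowered or raised; inconclusive = signal likely due to the compound's own green fluorescence; inactive = the rest.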
# Target: Ras-related protein Rab-2A (Canis lupus familiaris) (UniProt P61105)
# Assay: Rab2 wt fluorescent GTP binding changes, either direction – biochemical, dog, bead-based flow cytometry, multiplex, primary screen (AID 760);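 note: 0% = beads with excess unlabeled GTP and 100% = no-compound control corrected for plate trend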
# Details: GST-Rab2 wt beads, Bodipy-GTP binding, at 10 µM
row,Structure (SMILES),GTP binding activity
1,O=C(O)c1cccc(Oc2ccc([N+](=O)[O-])cc2)c1,active: 121% [activator]
2,Fc1ccc(-c2csc3ncnc(Cl)c23)cc1,inconclusive: 97%
3,Cc1ccc(S(=O)(=O)NCCCCCC(=O)Nc2c(C)n(C)n(-c3ccccc3)c2=O)cc1,inactive: 101%
4,OCCNCCOc1ccc(Cl)c(Cl)c1,inconclusive: 101%
5,O=C(Nc1cccnc1)c1ccc(CN2CCc3ccccc3C2)cc1,inconclusive: 103%
6,COC(=O)c1c(NC(=O)c2ccoc2C)sc2c1CCC2,inconclusive: 96%
7,CCOC(=O)c1cnc2cc3c(cn2c1=O)CCCC3,inconclusive: 107%
8,Cc1ccnn1CCC(=O)N1CCCC(CCC(=O)N2CCN(c3ccccn3)CC2)C1 (centres undefined),inactive: 96%
9,Nc1c(S(=O)(=O)c2ccccc2)c2nc3ccccc3nc2n1/N=C/c1cccc(O)c1,active: 70%
10,CCOc1ccccc1NC(=O)CSc1ccc([N+](=O)[O-])cc1,inactive: 99%
11,COc1ccc(OC)c(/C=N/NC(=O)c2cc[n+](CC(=O)c3ccccc3)cc2)c1,inconclusive: 105%
12,N#Cc1ccc(-c2ccc(F)cc2)nc1Sc1ccc(F)cc1,inconclusive: 105%
13,COc1cc(C(C)=O)ccc1OCC(=O)NCC1(N2CCCCC2)CCCCC1,inactive: 100%
14,Cc1ccc(NC(=O)c2cc(-c3ccccc3)nn2-c2ccccc2)cc1,inconclusive: 96%
15,CCn1c(=N)c(S(=O)(=O)c2ccccc2)cc2c(=O)n3ccccc3nc21,inactive: 89%
16,Cc1cc(S(=O)(=O)NCCCN2CCOCC2)ccc1F,inactive: 101%
17,Cc1nn(-c2ccc(F)cc2)c(Cl)c1/C=C(\CC(=O)O)c1nc2ccccc2s1,inconclusive: 81%
18,COc1ccc(C(=O)Nc2ccc(S(=O)(=O)N3CCCCC3)cc2)cc1OC,inconclusive: 93%
19,Cn1cccc1/C=C1\SC(=S)N(NC(=O)c2ccccc2)C1=O,inconclusive: 91%
20,CN=C(Nc1cccc(OC)c1)SC1CC(=O)N(c2ccc(C(=O)O)cc2)C1=O (centres undefined),inactive: 97%
21,CCn1c2ccccc2c2cc(/C=N/O)ccc21,inconclusive: 93%
22,O=[N+]([O-])c1ccccc1Oc1ncccc1[N+](=O)[O-],inconclusive: 91%
23,CCOC(=O)C1=C(N)OC(CCl)=C(C#N)C1c1ccsc1 (centres undefined),inactive: 100%
24,CCOC(=O)Cc1csc(NC(=O)/C=C/c2cccc(Br)c2)n1,inactive: 95%

row,Structure (SMILES),GTP binding activity
1,Clc1ccc(CNc2ccc3nnc(-c4ccccc4)n3n2)cc1,inactive: 97%
2,Cc1cc(C(F)(F)F)nc(SCC(=O)NC2=NC(=O)C(C)S2)n1 (centres undefined),inconclusive: 103%
3,O=C(Nc1nc(-c2ccc(S(=O)(=O)N3CCCC3)cc2)cs1)c1ccco1,inconclusive: 69%
4,Cc1cc(OC(=O)c2ccccc2)n(CCC#N)n1,inconclusive: 106%
5,Cc1cc(C(=O)CCl)c(C)n1-c1cccc(S(=O)(=O)N2CCOCC2)c1,inactive: 93%
6,N#C/C(=C/c1ccc(-c2cc(C(=O)O)cc(C(=O)O)c2)o1)c1nc2ccccc2s1,active: 67%
7,Cc1ccc(S(=O)(=O)Nc2ccc(Br)cc2C(NCC(=O)O)c2ccccc2)cc1 (centres undefined),inconclusive: 91%
8,Oc1ccc(Br)cc1C=Nc1ccc(Cl)cc1,inconclusive: 95%
9,O=C(/C=C/c1ccco1)NCC(=O)N/N=C/c1ccc(Cl)cc1,inconclusive: 89%
10,COc1ccc(C(=O)N/C(=C\c2cccc([N+](=O)[O-])c2)C(=O)Nc2cccc(C(=O)O)c2)cc1,active: 60%
11,CC(=O)c1sc(NC(=O)c2ccc(C)c(C)c2)nc1C,inconclusive: 92%
12,CC(C)(C)C(=O)NC(=S)NCc1ccccc1,inconclusive: 98%
13,COc1ccc(N2CCN(C(=O)COc3ncnc4ccccc34)CC2)cc1,inactive: 101%
14,CCC(CC)COC(=O)C(C#N)c1nc2ccccc2nc1N1CCOCC1 (centres undefined),inconclusive: 103%
15,Cc1ccc(Cn2cc(/C=C/C(=O)O)c(-c3ccccc3)n2)cc1,inconclusive: 106%
16,Cc1cc(NC(=O)CSc2nc3ccccc3c(=O)n2C2CCCC2)no1,inactive: 102%
17,COCCn1c(C)cc(C(=O)COC(=O)/C=C/c2cccc(OC)c2)c1C,inconclusive: 88%
18,COc1ccc2c(c1)nc(SCC(C)O)n2C (centres undefined),inconclusive: 102%
19,COC(=O)c1sccc1-n1cccc1C(=O)C(=O)N1CCOCC1,inactive: 98%
20,Cc1cccc(NC(=S)NNC(=O)c2ccc3c(c2)OCO3)c1,inconclusive: 95%
21,CCOC(=O)c1c(C)[nH]c(C(=O)CC(=O)OC)c1C,inactive: 91%
22,Oc1ccccc1N=Nc1ccccc1O,inconclusive: 97%
23,Cc1occc1-c1nnc(SCC(=O)N(C)C)o1,inactive: 98%
24,O=C(O)c1ccc(Cn2c(SCc3cc(=O)n4cc(Br)ccc4n3)nc3ccsc3c2=O)cc1,inconclusive: 90%

row,Structure (SMILES),GTP binding activity
1,CCc1nnc(NS(=O)(=O)c2ccc(Nc3ccc4nonc4c3[N+](=O)[O-])cc2)s1,active: 76%
2,COCCNC(=S)NCCCNc1nc2cc3c(cc2cc1C#N)OCO3,inconclusive: 94%
3,C/C(=N\NC(=O)c1ccc(Cl)cc1)c1cccc(NC(=O)C(C)C)c1,inconclusive: 103%
4,O=C(CN1C(=O)C2C3C=CC(C3)C2C1=O)NCCc1ccccc1Cl (centres undefined),inconclusive: 107%
5,O=C(CCN1CCCCC1)c1ccc2c(c1)OCCO2,inactive: 103%
6,O=C(CSCc1ccccc1)N=Nc1c(O)[nH]c2ccccc12,inconclusive: 98%
7,CC(=O)N=c1n(C)c2ccccc2n1CCOc1ccccc1,inactive: 101%
8,O=C(CN1C(=O)C2C3CCC(C3)C2C1=O)N1CCN(Cc2ccccc2)CC1 (centres undefined),inactive: 97%
9,Cc1cccc(NS(=O)(=O)c2cc(C(=O)N3CCOCC3)ccc2Cl)c1,inactive: 98%
10,CSc1nc2c(c(=O)[nH]1)C(c1ccncc1)C(C(=O)OC(C)C)=C(C)N2 (centres undefined),inconclusive: 106%
11,CCN(CC)CCNC(=O)c1ccc(Sc2ccc(C)cc2)c(NC(C)=O)c1,inactive: 100%
12,C=CCn1c(N)c(C(=O)OCC)sc1=S,inconclusive: 105%
13,O=C(Nc1ccc(Cl)c(Cl)c1)Nc1nnc(CSc2ccccc2)s1,inactive: 101%
14,Cc1ccccc1CN1CCN(C(=O)c2cccc(F)c2)CC1,inconclusive: 104%
15,COCCN1C(=O)/C(=C/c2ccc(N3CCCC3)cc2)SC1=S,inconclusive: 125%
16,O=C(N/N=C/c1cccnc1)c1ccc2c(c1)OCCO2,inactive: 97%
17,CNc1nc(-c2ccccn2)nnc1-c1ccccc1,inconclusive: 102%
18,COc1cccc(OCC(=O)O/N=C(\N)c2ccc(OC)c(OC)c2)c1,inconclusive: 89%
19,C=CCOc1ccc(/C=N/NC(=O)C(C)Sc2ccccn2)cc1OC (centres undefined),inconclusive: 98%
20,N#C/C(=C/c1ccc(N2CCCCC2)o1)C(=O)Nc1ccc(Cl)cc1,inconclusive: 110%
21,CCc1nnc(NS(=O)(=O)c2ccc(N=Cc3c(C)[nH]n(-c4cccc(Cl)c4)c3=O)cc2)s1,inconclusive: 91%
22,Cc1cc(N/N=C/c2ccc(O)cc2O)nc(-n2nc(C)cc2C)n1,inconclusive: 54%
23,NC(N)=NC1=NC(=O)/C(=C/c2ccccc2-n2cccn2)S1,inconclusive: 92%
24,CC(C)c1onc(C(=O)NC2CCCCC2)c1[N+](=O)[O-],inactive: 95%

row,Structure (SMILES),GTP binding activity
1,CCOc1cnn(Cc2ccccc2)c(=O)c1SCc1ccccc1,inactive: 101%
2,CCOC(=O)c1cccc(NC(=O)CCS(=O)(=O)c2ccc(Br)s2)c1,inconclusive: 103%
3,Cc1cc(C)n2c(SCc3nnc(-c4cccs4)o3)nnc2n1,inconclusive: 92%
4,CCCCCN1C(=O)Cn2c(nc3ccccc3c2=O)C1C (centres undefined),inactive: 97%
5,CCOC(=O)c1ccc(S(=O)(=O)NC2CCCCCCC2)n1C,inconclusive: 89%
6,C=CCSc1nc(N)c(C#N)c(-c2ccc(C)cc2)c1C#N,inactive: 87%
7,NC(=O)c1c(NC(=O)c2ccncc2)sc2c1CCCC2,inactive: 86%
8,COc1cc2cc(C)c3nnc(SCC(=O)Nc4cc(C)on4)n3c2cc1OC,inconclusive: 85%
9,COc1ccc(/C=C(\C#N)C(=O)NCC2CCCO2)cc1OC (centres undefined),inconclusive: 106%
10,O=C(Cc1cccs1)Nc1cccc(C(=O)Nc2ccc(C(=O)O)cc2)c1,inactive: 99%
11,O=C(NCCCN1CCOCC1)c1cc(C(=O)C2CCCCC2)c[nH]1,inconclusive: 96%
12,Cc1noc(C)c1COc1cccc(C(=O)NCc2ccccc2Cl)c1,active: 69%
13,Cc1cc(N=CC2=C(O)CC(C)(C)CC2=O)no1,inconclusive: 89%
14,O=C(Nn1cnc2ccccc2c1=O)c1ccccc1[N+](=O)[O-],inactive: 90%
15,CC(C)CC(=O)O/N=C1\C(=O)N(Cc2ccc(Cl)cc2)c2ccc([N+](=O)[O-])cc21,inactive: 98%
16,COc1ccc(OCC(=O)Nc2cccc(NC(=O)COc3ccc(OC)cc3)n2)cc1,inconclusive: 94%
17,COc1cc([C@H]2[C@@H]3CCCC[C@]3(O)CCN2CC(=O)Nc2ccc(C)cc2)ccc1O,inactive: 98%
18,S=C(Nc1ccc(Oc2ccc(NC(=S)NC3CCCCC3)cc2)cc1)NC1CCCCC1,inactive: 101%
19,Cn1c(C(=O)N2CCN(Cc3ccc4c(c3)OCO4)CC2)cc2c(=O)n(C)c3ccccc3c21,inconclusive: 87%
20,O=C1CSc2ccc(C(=O)NCCC3=CCCCC3)cc2N1,inconclusive: 95%
21,O=c1c2ccccc2nc2c3ccccc3c(NCCO)nn12,active: 62%
22,COc1cc(/C=N/NC(=O)CN(Cc2ccco2)S(=O)(=O)c2ccccc2)ccc1O,inactive: 81%

# — PubChem BioAssay AID760 (NMMLSC, 2007)
